Assay results: PubChem BioAssay AID1159614 (National Center for Advancing Translational Sciences (NCATS), 2016)
About 65 (0.1%) of roughly 45,000 compounds were called active. Calls come from the whole dose curve; as a rule, active = well fitted activation curve with a large enough effect; inconclusive = small, poorly fitted or top-dose-only effect; inactive = no such curve, though single readings can be large or run the other way. Some of the results follow.

Biological target: Galactocerebrosidase (Homo sapiens) (UniProt P54803)
Sequence of UniProt P54803 (P54803 whole entry, looked up): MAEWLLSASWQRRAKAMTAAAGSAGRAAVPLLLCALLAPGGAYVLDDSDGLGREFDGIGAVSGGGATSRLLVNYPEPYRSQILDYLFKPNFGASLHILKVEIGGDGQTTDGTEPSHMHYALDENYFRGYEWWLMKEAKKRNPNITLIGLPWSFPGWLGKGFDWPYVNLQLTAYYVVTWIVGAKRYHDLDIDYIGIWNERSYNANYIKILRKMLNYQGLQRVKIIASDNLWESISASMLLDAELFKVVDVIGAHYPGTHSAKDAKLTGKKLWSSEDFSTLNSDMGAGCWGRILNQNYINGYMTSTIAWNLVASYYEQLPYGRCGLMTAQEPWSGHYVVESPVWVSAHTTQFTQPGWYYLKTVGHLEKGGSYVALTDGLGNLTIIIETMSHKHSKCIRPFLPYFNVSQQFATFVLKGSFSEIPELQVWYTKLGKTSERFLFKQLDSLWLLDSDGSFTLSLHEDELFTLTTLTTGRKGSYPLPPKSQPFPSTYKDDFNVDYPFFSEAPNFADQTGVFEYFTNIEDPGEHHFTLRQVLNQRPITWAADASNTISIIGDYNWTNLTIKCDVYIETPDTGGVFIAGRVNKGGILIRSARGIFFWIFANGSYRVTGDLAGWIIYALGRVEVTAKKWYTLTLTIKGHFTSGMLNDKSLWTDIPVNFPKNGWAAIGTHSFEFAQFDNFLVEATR
Experiment: A Novel Cell-Based Assay to Identify Small Molecules for B -Galactocerebrosidase; note: 0% is about no effect; nearly all actives have a fitted effect of over 65% in size
Settings: 145M-Twi-hGALC-G270D cells (Twitcher mouse brain line with human GALC G270D), HMU-beta-Gal fluorescence, 48 h; series mostly up to 57.5 µM; activation: at the top concentration
Procedure, shortened: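 Live 145M-Twi cells (Twitcher mouse brain-derived, GALC-null) stably expressing human GALC-G270D, with a wild-type GALC line, were compound-treated. Residual GALC activity was then read as fluorescence from 0.1 mM final HMU-β-gal at pH 5.2; higher signal means activation.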

activation, inactive:
Cc1ccc(-c2nn3c(=O)cc(CN4CCN(C(=O)/C=C/c5ccccc5)CC4)nc3s2)cc1 -10.8%, CCOC(=O)c1ccc(NC(=O)C(Cc2ccccc2)N2Cc3ccccc3C2=O)cc1 (configuration not stated) -15.3%, CCn1c(=O)c2sccc2n2c(CCCC(=O)N3CCN(c4cccc(Cl)c4)CC3)nnc12 -18.6%, Cc1ccc(-n2nc3c(N4CCCC(C(=O)NCc5ccc(Cl)cc5)C4)nnc(C)c3c2C)cc1 (configuration not stated) -4.33%, COC(=O)c1ccc2c(c1)N(CC(=O)Nc1ccc(OC)c(Cl)c1)C(=O)c1ccccc1S2 -0.216%, CC(C)c1ccc(NC(=O)CSc2nc(=O)n(Cc3ccccn3)c3c2CCC3)cc1 -5.49%, N#Cc1nc(COc2cccc(Cl)c2)oc1NCCc1ccccc1 -5.58%, CCCn1c(SCc2nc(-c3ccccc3OCC)no2)nnc1-c1ccc(Cl)cc1 -9.13%, CCOc1ccccc1C(=O)N(Cc1cc(OC)c(OC)c(OC)c1)c1ccccn1 -10.7%, Cc1ccc(NC(=O)Cn2c(=O)n(Cc3nc(C)no3)c(=O)c3cc4c(cc32)OCO4)c(C)c1 -6.6%, Cc1sc2ncn(CC(=O)Nc3cccc(C(F)(F)F)c3)c(=O)c2c1S(=O)(=O)N1CCN(C)CC1 3.2%, CCOc1ccc(OCC(=O)NCCS(=O)(=O)N2CCN(c3ccccc3F)CC2)cc1 -18.7%, COC(=O)CNC(=O)C1CCN(S(=O)(=O)c2cccc3nsnc23)CC1 -7.38%, Cc1ccc(C(=O)c2c(N)c(C(=O)Nc3ccccc3Cl)c3ccccn23)cc1 -17.1%, Cc1ccc(CCNC(=O)c2ccc3c(c2)nc2n3CCCCC2)cc1 7.03%, O=C(CN1C(=O)COc2ccc(Cl)cc21)Nc1cccc(F)c1 -30%, CCN(CC)c1ccc2cc(-c3nc(-c4cccs4)no3)c(=O)oc2c1 -2.14%, CC(=O)c1ccc(N2CCN(C(=O)CCC(=O)Nc3ccc4nc(N5CCCCC5)cc(C)c4c3)CC2)cc1 -8.77%, CC1=C(C(=O)Nc2ccc(C)cc2C)C(c2ccc([N+](=O)[O-])cc2)n2ncc(C(=O)Nc3ccc(F)cc3)c2N1 (configuration not stated) 10.5%, Cc1ccc(-n2c(=O)c3c(cnn3C)n(CC(=O)Nc3ccc(C)cc3C)c2=O)cc1 -2.17%, COc1cc2c(Nc3ccc(Br)cc3F)ncnc2cc1OCC1CCN(C)CC1 -6.76%, Cc1c(C(=O)N2CCC(C)CC2)c(S(=O)(=O)NCc2ccc(Cl)cc2)c(C)n1C -24.2%, CN(c1ccc(F)cc1)S(=O)(=O)N1CCCC(C(=O)NCc2cccc(Br)c2)C1 (configuration not stated) -15.4%, Cc1ccc(S(=O)(=O)N2CCCc3cc(NS(=O)(=O)c4cccc(Cl)c4)ccc32)cc1 -10.5%, COc1ccccc1NC(=O)CSc1nnc(NC(=O)Nc2ccc(C)cc2)s1 -12.5%, COc1ccccc1CNC(=O)c1c(O)nc2c(C)cccn2c1=O -14.6%, CC1CCN(S(=O)(=O)c2ccc3c(c2)c(=O)c(C(=O)NCCc2ccccc2)cn3C)CC1 -20.6%, COc1ccc(S(=O)(=O)NCCc2csc3nc(-c4cccc(C)c4)nn23)cc1F -7.75%, CCCCN1C(=O)c2[nH]nc(-c3ccccc3O)c2C1c1ccc(OCc2ccccc2)cc1 (configuration not stated) -8.69%, COc1ccccc1NC(=O)CCC(=O)N1CC(C)Oc2ccc(C)cc21 (configuration not stated) -5.68%, CCc1ccc(NC(=O)C2CCCN2S(=O)(=O)c2ccc3c(c2)n(C)c(=O)c(=O)n3C)cc1 (configuration not stated) -7.78%, COc1ccccc1CNC(=O)CN(C)c1nn2c(=O)cc(C)nc2s1 -9.5%, CC(=O)c1ccc(NC(=O)CSc2nnc3ccc(-c4ccc(Br)cc4)nn23)cc1 -22%, COC(=O)CN1C(=O)CSc2ccc(S(=O)(=O)Nc3ccc(C(C)=O)cc3)cc21 -13.4%, CC1(C)OC[C@@H]2O[C@@]3(C(=O)O)OC(C)(C)O[C@H]3[C@@H]2O1 -11.9%, COc1ccc(NC(=O)Cn2c(=O)c3cc(Cl)ccc3n3nncc23)cc1 -1.2%, CCOc1ccc(C(=O)c2cn(CC(=O)Nc3ccc4c(c3)OCCO4)c3ccc(F)cc3c2=O)cc1 -3.18%, CC(C)CCNS(=O)(=O)c1ccc(N2CCCCS2(=O)=O)cc1 -7.01%, CC1CCN(C(=O)CSc2nnc(-c3ccccc3)o2)CC1 -1.1%, CN(C(=O)CSc1nc(C2CCCC2)nc2c1c(=O)n(C)c(=O)n2C)c1ccccc1 -29.7%, Cc1cccc(C)c1OC(=O)CSc1nnc(CNC(=O)c2ccccc2)o1 -7.07%, Cc1cc(C)c(NS(=O)(=O)c2cc(-c3onc(C)c3C)ccc2C)c(C)c1 -4.88%, O=C(CN1CCCN(S(=O)(=O)c2ccc(Br)cc2)CC1)Nc1cccc(C(F)(F)F)c1 -9.73%, Cc1ccc(NC(=O)c2cnc(SCC(=O)N3CCOCC3)n(C)c2=O)cc1C -17.2%, CC1CCN(C(=O)c2ccc3c(c2)N(Cc2ccccc2)C(=O)c2ccccc2S3(=O)=O)CC1 -12.2%, COc1ccc(-n2nnc(-c3nsc(NC(=O)c4ccc(C)c(C)c4)n3)c2C)cc1Cl -4.7%, CCCc1nnc(NC(=O)Cc2coc3ccc(C(C)C)cc23)s1 0.22%, O=C(CSc1oc(-c2ccccc2)nc1S(=O)(=O)c1ccc(Cl)cc1)NC1CCCCC1 11.6%, COCCCNC(=O)CSc1nc2cc3c(cc2c(=O)n1CCCCCC(=O)NCc1ccc(OC)cc1)OCO3 4.37%, CC(C)COC(=O)Cn1nnc2sc(-c3ccccc3)cc2c1=O -1.15%, COc1ccc(NC(=O)Cn2nnc(C(=O)NCc3ccc4c(c3)OCO4)c2N)cc1 -8.15%, Cc1cccc(N2CCN(C(=O)c3ccc4c(Cl)c5c(nc4c3)CCCC5)CC2C)c1 (configuration not stated) -7.86%, COc1ccccc1-c1noc(-c2ccc(NCc3ccco3)c([N+](=O)[O-])c2)n1 10.1%, O=C(Nc1cccc(C(F)(F)F)c1)c1cc(S(=O)(=O)N2CCCC2)c[nH]1 -14.4%, Cc1ccc2cccc(NC(=O)c3cccc4c(Cl)cccc34)c2n1 -9.36%, Cc1ccc(C)c(N2CCN(C(=O)CCNS(=O)(=O)c3ccc4c(c3)CCN4C(=O)C3CC3)CC2)c1 -43%, O=C(C1CCC(Cn2c(=O)c3sccc3n(Cc3ccccc3)c2=O)CC1)N1CCCCC1 (configuration not stated) -9.31%, CCN(Cc1ccccc1)Cc1c(O)ccc2c(=O)c(-c3ccc(Cl)cc3)coc12 -10.4%, Cc1ccc(-c2cc(-c3coc4ccc(Cl)cc4c3=O)c3c(n2)-c2ccccc2OC3)cc1 -5.55%, O=C(NCc1ccccc1Cl)c1cnc(N2CCOCC2)c2ccccc12 -4.71%, COc1ccc(OC)c(NC(=O)CC2C(=O)NCCN2C(=O)C(F)(F)F)c1 (configuration not stated) -22.2%, CCOc1ccc(NC(=O)CCc2nc3cccnc3n2-c2ccccc2)cc1 -17.4%, CCc1ccc(NC(=O)CSc2nc3c(oc4ccccc43)c(=O)n2-c2cccc(C)c2)cc1 -10.7%, O=C(Nc1nc2ccc(Cl)cc2s1)c1cc(=O)c2ccccc2o1 -8.09%, CCc1cccc(CC)c1NC(=O)C(Cc1ccccc1)NS(=O)(=O)c1cccc2nsnc12 (configuration not stated) -15.2%, COc1ccc2c(c1)c(CC(=O)Nc1ccc(C(C)=O)cc1)c(C)n2C(=O)c1ccc(Cl)cc1 -15.2%, COc1ccc(NC(=O)c2oc3ccccc3c2NC(=O)C23CC4CC(CC(C4)C2)C3)c(OC)c1 -7.39%, Cc1ccc(NC(=O)c2oc3ccccc3c2NC(=O)c2ccc(F)c(F)c2)cc1 -6.53%, COc1ccc(S(=O)(=O)NCCS(=O)(=O)N2CCN(c3ccccc3)CC2)cc1OC -8.46%, CN1CCc2c(sc(NC(=O)CSc3ccc(F)cc3)c2-c2nc3ccccc3s2)C1 -13.4%, COc1cccc(C(=O)NC(=NCCc2c[nH]c3ccc(OC)cc23)Nc2nc(C)cc(C)n2)c1 3.93%, CCN1C(C(=O)c2ccccc2)=C(OC(=O)COc2ccc(OC)cc2)c2ccccc2S1(=O)=O -6.25%, CC(C)CN(CCCNC(=O)c1cc(=O)[nH]c2ccc(S(=O)(=O)N3CCCC3)cc12)CC(C)C 1.05%, Cc1ccc(CNC(=O)CCCCCn2c(=O)c3sccc3n(CC(=O)Nc3ccc(C)c(F)c3)c2=O)cc1 -6.77%, Cc1ccc(NC(=O)c2ccc(CN3CCN(C)CC3)cc2)cc1Nc1nccc(-c2cccnc2)n1 -14.2%, CCc1cnc2c(c1SCc1ccccc1C)c(=O)n(C)c(=O)n2C -12.7%, Cc1cc(F)ccc1NC(=O)c1c(C)oc2c1C1=NCCN1C=N2 -7.93%, O=C(NCc1ccc(Cl)cc1Cl)c1cccc(N2CCCS2(=O)=O)c1 -6.45%, CCn1cc2nc(SCc3cccc(C(F)(F)F)c3)n(Cc3ccc(C)cc3)c(=O)c2n1 -7.62%, COc1ccccc1-n1c(=O)n(C)c2c(C(N)=O)nc(-c3cc(OC)c(OC)c(OC)c3)nc21 8.7%, Cc1cc(C)c2c(N)c(C(=O)Nc3ccccc3C(F)(F)F)sc2n1 -12%, COc1cc2c(cc1NC(=O)C(C)Oc1ccccc1)oc1ccccc12 (configuration not stated) -11%, CCc1ccccc1NC(=O)CSc1nc2c(c(=O)[nH]1)CN(Cc1ccccc1OC)CC2 -10.4%, CCCSc1ncc(Cl)c(C(=O)N2CCN(c3ccc(OC)cc3)CC2)n1 -15.1%, CN(C(=O)c1nn(C)c2c1CS(=O)(=O)c1ccccc1-2)c1cccc(Cl)c1 -10.2%, COc1ccc(OC)c(NC(=O)COCc2cc(-c3ccc(F)cc3)on2)c1 -5.18%, CCC1CN(C(=O)Nc2cc(Cl)ccc2C(=O)OC)c2ccccc2S1 (configuration not stated) 0.367%, Cc1ccc(N2C(=O)N(Cc3cccc(Cl)c3)c3ccccc3S2(=O)=O)cc1 2.16%, Cc1ccc(C)c(Cn2c(=O)n(CCCC(=O)NCc3ccc4c(c3)OCO4)c(=O)c3sccc32)c1 -34.5%, CCOC(=O)c1sc(N2C(=O)c3oc4ccc(F)cc4c(=O)c3C2c2ccc(O)cc2)nc1C (configuration not stated) -10.2%, CCOC(=O)c1ccc(NC(=O)c2c(NCc3cccc(OC)c3OC)sc3c2CCC3)cc1 -3.95%, CC(C)Oc1ccc(C(=O)N2CCCCC2CCN2CCCCC2)cc1 (configuration not stated) -3.37%
